As usually defined, the MIC is the smallest concentration in the dilution series that meets the test's criterion for growth inhibition.

In brackets after ≈: the same amount, converted by molar mass. Where two headings read alike, the source gives them in different places. Bounds are passed on as bounds.

The values below come from publication PMC5481654, “Identification of the anti-mycobacterial functional properties of piperidinol derivatives” (British journal of pharmacology, 2017).

In data set [1] the test system is M. smegmatis. As to the kind of experiment: MIC by resazurin reduction microplate assay (REMA). The data set is classed as cell-based, M. smegmatis MC^2155. (In general: Alamar Blue is a resazurin reagent that responds to reducing activity.)
The test system of data set [2] is M. smegmatis:aroB / M. smegmatis:pMV261. Kind of data set: MIC by REMA against aroB-overexpressing and empty-vector strains. The note with it: for MIC: Mycolicibacterium smegmatis, mean ± SEM; for effect of overexpression of aroB on susceptibility: compared with the wild-type strain.
The format of data set [3] is in vitro ADME. The note with it: CD-1, mouse, microsomes, 1 μg·mL, pH 7.4.
Data set [4] has as its system E. coli. As to the kind of experiment: MIC by REMA. The format is cell-based, Escherichia coli. The note with it: Escherichia coli.
Data set [5] deals with P. putida. As to the kind of experiment: MIC by REMA. The note with it: Pseudomonas putida; P. putida, mean ± SEM, n = 5. The format is cell-based, Pseudomonas putida.
Data set [6] concerns M. bovis BCG. The note with it: ref Abuhammad et al., 2014; cited from earlier work.
The subject of data set [7] is M. tuberculosis. More on the design: method as in Jeney and Zsolnai, 1956; Abuhammad et al., 2012. The note with it: ref Jeney and Zsolnai, 1956, Abuhammad et al., 2012; cited from earlier work.
The test system of data set [8] is NAT enzyme from M. marinum. Details: method as in earlier work. The note with it: covalent adduct with active site cysteine, ref Abuhammad et al., 2010, 2012, 2014; cited from earlier work.
Where [9] appears, read: Mycolicibacterium smegmatis, M. smegmatis WT, Table 2, mean ± SEM, read-out: MIC.
Where [10] appears, read: Mycolicibacterium smegmatis, MC^2155, M. smegmatis mc^2155 – wild type, Table 4, mean ± SEM, read-out: MIC.
The mark [11] stands for this setting: M. smegmatis:aroB (overexpression from pMV261).
Setting [12] is: M. smegmatis:pMV261 (empty vector).
Setting [13] is: M. smegmatis, Table 1, mean ± SEM, n = 5.

As for `CO[C@H]1/C=C/O[C@@]2(C)Oc3c(C)c(O)c4c(O)c(c(/C=N/N5CCN(C)CC5)c(O)c4c3C2=O)NC(=O)/C(C)=C\C=C\[C@H](C)[C@H](O)[C@@H](C)[C@@H](O)[C@@H](C)[C@H](OC(C)=O)[C@@H]1C` [Rifampicin, reference compound], the MIC came to 3.2 ± 0.5 µg/mL (≈ 3.89 µM) in data set [1] (setting [9]), 7.5 ± 1.1 µg/mL (≈ 9.11 µM) in data set [1] (setting [10]), 7.5 ± 1.1 µg/mL (≈ 9.11 µM) in data set [2] (setting [11]) and 7.5 ± 1.1 µg/mL (≈ 9.11 µM) in data set [2] (setting [12]).
In data set [3], `CN(CCC(=O)c1ccccc1)CCC(=O)c1ccccc1` [Compound 2, 3,3′-(methylazanediyl)bis(1-phenylpropan-1-one)] displayed a CLint of more than 48 μL·min^−1·mg^−1 protein. Moreover, the MIC in data set [4] was 250 µg/mL (≈ 846 µM); in data set [5], more than 500 µg/mL; in data set [1] (setting [13]), 125 ± 0 µg/mL (≈ 423 µM); in data set [1] (setting [9]), 112 ± 12.5 µg/mL (≈ 381 µM); in data set [1] (setting [10]), 112 ± 12.5 µg/mL (≈ 381 µM); in data set [2] (setting [11]), 300 ± 49.9 µg/mL (≈ 1020 µM). In data set [2] (setting [12]), this compound registered a minimal inhibitory concentration (MIC) of 275 ± 61.2 µg/mL (≈ 931 µM). Also, the “effect of overexpression of aroB on susceptibility” value in data set [2] is “partial resistance”.
In the case of `CN1CCC(O)(c2ccccc2)C(C(=O)c2ccccc2)C1` (stereo not drawn) [Compound 1], the minimal inhibitory concentration (MIC) in data set [4] was 250 µg/mL (≈ 846 µM); in data set [6], 6.25 to 12.5 µg/mL; in data set [5], 250 µg/mL (≈ 846 µM); in data set [7] it was 5 µg/mL (≈ 16.9 µM); in data set [1] (setting [13]) it was 62.5 ± 0 µg/mL (≈ 212 µM); in data set [1] (setting [9]), 56.2 ± 6.3 µg/mL (≈ 190 µM). Also, the MIC came out at 56.2 ± 6.3 µg/mL (≈ 190 µM) in data set [1] (setting [10]), 112 ± 12.5 µg/mL (≈ 381 µM) in data set [2] (setting [11]) and 112 ± 12.5 µg/mL (≈ 381 µM) in data set [2] (setting [12]). The “inhibition of NAT enzyme” value in data set [8] is on record as “inhibits”. Also, the “effect of overexpression of aroB on susceptibility” value in data set [2] is “partial resistance”.
